The supplement of paper PMC3334620
The full ranking holds about 33,000 sequences; the median of “E-score (-0.5 to 0.5)” is about -0.053, and the highest 2% start at about 0.37. The list shows a part of the results.

target: Hap1 (UniProt P0CE41); test: PBM E-score (8-mer binding enrichment) (E-score (-0.5 to 0.5)); higher = stronger / more preferred TF binding; most listed sequences are background and not binding sites; settings: protein concentration: 200 nM; construct: GST-DNA-binding domain
In short: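 Full-length yeast transcription factors or their DNA-binding domains, GST-tagged and expressed with PURExpress, were applied at about 100-200 nM to universal all-10-mer Agilent arrays. These arrays had been made double-stranded by primer extension on fresh or once-stripped slides. Detection used fluorescent anti-GST, normalisation used masliner, and E-scores for ungapped eight-base words pooled with reverse complements came from the Universal PBM Analysis Suite.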

Chain of UniProt P0CE41 (P0CE41 whole entry, the tested form may be a part): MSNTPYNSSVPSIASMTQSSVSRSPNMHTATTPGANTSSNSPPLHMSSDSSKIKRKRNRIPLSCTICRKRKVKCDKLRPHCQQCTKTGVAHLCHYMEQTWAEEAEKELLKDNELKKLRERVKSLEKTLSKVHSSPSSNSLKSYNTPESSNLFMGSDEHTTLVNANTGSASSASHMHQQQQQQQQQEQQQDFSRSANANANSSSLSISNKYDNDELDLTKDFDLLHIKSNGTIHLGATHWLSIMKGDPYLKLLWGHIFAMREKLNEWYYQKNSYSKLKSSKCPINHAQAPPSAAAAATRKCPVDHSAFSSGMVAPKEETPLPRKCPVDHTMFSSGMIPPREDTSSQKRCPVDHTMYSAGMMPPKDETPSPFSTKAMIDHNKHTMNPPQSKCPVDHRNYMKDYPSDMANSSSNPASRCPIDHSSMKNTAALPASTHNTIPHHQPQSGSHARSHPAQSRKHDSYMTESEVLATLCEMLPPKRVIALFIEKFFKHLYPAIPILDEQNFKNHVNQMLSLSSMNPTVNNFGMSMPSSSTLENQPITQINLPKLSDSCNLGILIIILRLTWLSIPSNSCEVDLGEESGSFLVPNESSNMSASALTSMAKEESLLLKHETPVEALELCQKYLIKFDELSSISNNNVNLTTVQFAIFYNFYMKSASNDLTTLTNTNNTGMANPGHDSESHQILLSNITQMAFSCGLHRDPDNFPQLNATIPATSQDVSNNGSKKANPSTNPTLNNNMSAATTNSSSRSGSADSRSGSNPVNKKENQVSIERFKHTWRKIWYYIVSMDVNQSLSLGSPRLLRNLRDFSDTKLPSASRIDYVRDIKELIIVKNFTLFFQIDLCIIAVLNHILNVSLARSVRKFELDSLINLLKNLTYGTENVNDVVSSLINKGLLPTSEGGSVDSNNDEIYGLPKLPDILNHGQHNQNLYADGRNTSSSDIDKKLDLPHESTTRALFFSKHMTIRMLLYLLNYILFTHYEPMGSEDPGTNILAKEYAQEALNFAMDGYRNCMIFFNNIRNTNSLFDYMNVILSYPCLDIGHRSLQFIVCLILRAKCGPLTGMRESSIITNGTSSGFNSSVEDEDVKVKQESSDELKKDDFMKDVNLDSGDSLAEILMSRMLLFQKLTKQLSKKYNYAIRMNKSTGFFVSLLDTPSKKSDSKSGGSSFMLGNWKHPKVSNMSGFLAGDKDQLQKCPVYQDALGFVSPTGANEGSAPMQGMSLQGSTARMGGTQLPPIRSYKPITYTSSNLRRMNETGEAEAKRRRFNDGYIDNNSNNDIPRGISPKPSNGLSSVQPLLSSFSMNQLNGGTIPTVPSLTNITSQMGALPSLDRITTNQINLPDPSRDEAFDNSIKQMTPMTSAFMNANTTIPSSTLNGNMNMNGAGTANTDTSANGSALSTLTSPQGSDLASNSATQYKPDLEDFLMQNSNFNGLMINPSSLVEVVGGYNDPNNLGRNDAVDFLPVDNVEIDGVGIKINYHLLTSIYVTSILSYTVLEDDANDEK

Row | Sequence | PBM E-score
1 | GGACCCCC | 0.0704
2 | GAGCGCGC | 0.174
3 | AGGCGGCC | 0.0302
4 | AGGTCGAC | -0.113
5 | ACTTGCAC | -0.0854
6 | AGACCACC | -0.246
7 | AAACGTAT | -0.0146
8 | ACTGGCAA | -0.078
9 | ACCGTAAA | 0.0865
10 | AAATGTGG | 0.038
11 | GCGCAAAA | -0.00131
12 | TCTGGCCA | -0.255
13 | ATGGGGCG | -0.0621
14 | ATCGACGC | -0.0158
15 | AGAACTGA | -0.269
16 | CCTTAGCA | -0.0286
17 | GCGATACC | 0.192
18 | GGCCAGAC | 0.0273
19 | GGATTAAA | 0.267
20 | GCGGTTGA | 0.12
21 | ATTTAGTA | 0.102
22 | TATACGAA | -0.02
23 | GGCCAACC | 0.123
24 | ACACTCCT | -0.112

Row | Sequence | PBM E-score
25 | AATGATAA | 0.0423
26 | AATTCCAC | 0.192
27 | GCGCCCGC | 0.0873
28 | GCGATCCC | -0.0261
29 | TCAATTGA | -0.079
30 | CATCGGTC | 0.278
31 | CCAGCGCG | 0.0332
32 | GCAAGAAC | -0.0934
33 | CAGAGATG | -0.157
34 | CATCTTCA | -0.236
35 | CCTGACTC | -0.122
36 | GCCCATCA | -0.13
37 | AGACCTTC | -0.136
38 | AACTGAAA | -0.042
39 | CCCAAGAC | -0.0714
40 | CTCTCGCA | -0.179
41 | AAATATGG | -0.156
42 | CTTGGGCC | 0.0626
43 | ATCAAGGG | -0.0602
44 | CAGGATTA | -0.0384
45 | GTATCAAC | 0.0629
46 | CGAGCACC | 0.0226
47 | ACGACGAT | 0.1
48 | TACGCATA | -0.0325

Row | Sequence | PBM E-score
49 | CTTGTCGC | 0.0871
50 | TATCGAAA | 0.0242
51 | ACTGAGAT | -0.257
52 | AACTAAAG | -0.114
53 | AGGGAACA | -0.122
54 | CGGCCGGA | 0.436
55 | TCTAACCA | -0.115
56 | CCTACAGC | 0.0103
57 | AAACATTA | -0.187
58 | CCGCTTAG | 0.0499
59 | CCCACAGG | -0.119
60 | AAGTCAAA | -0.159
61 | AAGCACGG | 0.0605
62 | TGAGGACA | -0.297
63 | GCTCGCAC | 0.112
64 | CCCTTGTA | -0.115
65 | TAGGCACA | -0.204
66 | GTGATTTA | 0.0429
67 | TCCGGGAA | 0.376
68 | CAGAGATC | -0.108
69 | AATTTTTG | -0.144
70 | AATCGTGG | -0.179
71 | CCCTCACG | -0.262
72 | GCATGCCC | 0.0863

Row | Sequence | PBM E-score
73 | AAAAGGAG | -0.0328
74 | GGGTTGAC | -0.187
75 | AGACGACG | -0.011
76 | ATCCAGTA | 0.00689
77 | CAGAAATA | -0.0924
78 | AACGGCAC | 0.0718
79 | CTCCGAAG | 0.401
80 | GAGCTCGA | -0.1
81 | ATGCCCTC | -0.0254
82 | CTACAGAA | -0.23
83 | ATCATCGC | 0.0926
84 | CCTTTGTC | -0.0255
85 | AACGCTTC | -0.0716
86 | AACCACCA | -0.0905
87 | CTAAAGAA | -0.0447
88 | ACCGCGGG | 0.252
89 | AGCCGCAT | -0.0279
90 | CTCTAGAC | -0.291
91 | ACATACTA | -0.119
92 | ATGAAAAG | -0.221
93 | CACCATTA | 0.0208
94 | ACTGCTTA | -0.199
